From PubChem BioAssay AID1346428 (National Center for Advancing Translational Sciences (NCATS), 2018)
Among all 48,000 compounds or so, about 1,200 (2.5%) were called active. Not shown: some 2% with an inconclusive outcome.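 The calls were made as follows: active = activation of at least 60% and not above a set upper limit (about 1 call in 100 departs from these limits); inconclusive = activation of 40% to 60%, or above that upper limit; inactive = activation under 40%.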 This is one part of the list.

Molecular target: Probable G-protein coupled receptor 32 (Homo sapiens) (UniProt O75388)
Experiment: qHTS for Agonists of Human Resolvin D1 Receptor DRV1; also: 0% is about no effect
Conditions: CHO-K1 GPR32 beta-arrestin PathHunter luminescence, 90 min; at 76.9 µM; active compounds read high; zero percent set by DMSO-only wells
Outline: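 Engineered CHO-K1 line co-expressing GPR32-ProLink and EA-beta-arrestin. Compound treatment lasted 90 min at 37 °C. Luminescence was recorded after 1 h with substrate at ambient temperature, relative to DMSO basal wells.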

Sequence of UniProt O75388 (O75388 whole entry, looked up): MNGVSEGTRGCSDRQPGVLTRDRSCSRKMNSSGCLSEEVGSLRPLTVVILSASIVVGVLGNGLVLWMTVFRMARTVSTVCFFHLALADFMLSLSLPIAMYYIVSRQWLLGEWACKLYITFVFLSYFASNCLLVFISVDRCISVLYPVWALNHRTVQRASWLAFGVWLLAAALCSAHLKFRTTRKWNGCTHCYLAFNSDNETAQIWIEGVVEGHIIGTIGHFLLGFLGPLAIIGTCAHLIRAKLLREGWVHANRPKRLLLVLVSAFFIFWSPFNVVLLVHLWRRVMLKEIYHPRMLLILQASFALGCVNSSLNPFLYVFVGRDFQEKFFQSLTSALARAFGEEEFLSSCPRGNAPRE

Row | Structure (SMILES) | activation
1 | Cc1cc(C)c(S(=O)(=O)NCC(c2ccco2)N2CCOCC2)c(C)c1 (configuration not stated) | inactive: -0.0887%
2 | CCc1ccc(NC(=O)Cn2c(=O)n(CCCCC(=O)NCc3ccccc3Cl)c(=O)c3ccccc32)cc1 | inactive: -2%
3 | Cc1ccc(-c2onc(C)c2C)cc1S(=O)(=O)NCc1ccc(N(C)C)cc1 | inactive: 7.76%
4 | O=C(NCc1ccccc1)C(=O)NCC(c1ccco1)S(=O)(=O)c1ccc(Cl)cc1 (configuration not stated) | inactive: -8.59%
5 | COc1ccccc1-c1nnc(C2CCN(C(=O)c3cccc(C)c3)CC2)o1 | inactive: 2.98%
6 | COc1cccc(Cn2c(=O)n(-c3cccc(Cl)c3)c(=O)c3c4c(sc32)CN(C(C)=O)CC4)c1 | inactive: -12.8%
7 | C=CCC(CC=C)(CNC(=O)C(=O)Nc1ccc(C)cc1)c1ccccc1 | inactive: -11.3%
8 | CCOc1cc(OCC)cc(C(=O)Nc2cccc(-c3nc4ccccc4[nH]3)c2)c1 | inactive: -18.3%
9 | CCOc1ccc(NC(=O)CN2CCN(S(=O)(=O)c3ccc(OC)cc3)CC2)cc1 | inactive: 11.4%
10 | COc1ccc(NC(=O)c2cc(C)nc3c2c(C)nn3-c2ccc(C)cc2)cc1OC | inactive: -12.5%
11 | Cc1ccccc1Nc1nn2c(=O)c3ccc(C(=O)NCc4ccccc4)cc3nc2s1 | inactive: -12.7%
12 | CCn1c(=O)cc(OCC(=O)NCc2ccccc2OC)c2ccccc21 | active: 118%
13 | COc1ccc(C(=O)/C=C/c2cn(CC(O)CN3CCc4ccccc43)c3ccccc23)cc1 (configuration not stated) | inactive: -8.7%
14 | COc1cc(Nc2nc(SCc3ccccc3Cl)nc3ccccc23)cc(OC)c1 | inactive: -22.1%
15 | CCc1ccccc1NC(=O)CCCN1C(=O)CCn2nc(-c3cn(C)c4ccccc34)cc21 | inactive: 12.5%
16 | COc1cccc(NC(=O)c2oc3ccccc3c2NC(=O)C2CCCCC2)c1 | inactive: -5.57%
17 | CCOCc1cc(CN2CCN(c3ccccc3OC)CC2)c(O)c2ncccc12 | inactive: -22.7%
18 | COC(=O)c1cc(NC(=O)c2cc3sccc3n2Cc2ccc(Cl)cc2)cc(C(=O)OC)c1 | inactive: 1.22%
19 | CCOc1ccc(NC(=O)CSc2oc(-c3ccccc3)nc2S(=O)(=O)c2ccc(Cl)cc2)cc1 | inactive: -15.9%
20 | Cc1cc(N2CCC(C(=O)N(CC(C)C)CC(C)C)CC2)n2nc(C)c(-c3ccc(Cl)cc3)c2n1 | inactive: -18.5%
21 | O=C1NC(NS(=O)(=O)c2ccccc2)(C(F)(F)F)C(=O)N1c1ccc(F)cc1 (configuration not stated) | inactive: 25.9%
22 | Cc1cc(C)cc(OCc2cc(=O)n3c(-c4ccccc4)csc3n2)c1 | inactive: -11.7%
23 | CSc1ncc(Cl)c(C(=O)N(Cc2ccc(C)cc2)C2CCS(=O)(=O)C2)n1 (configuration not stated) | inactive: -6.32%
24 | COc1ccccc1C1C=C(c2ccc(C(C)C)cc2)Nc2nnnn21 (configuration not stated) | inactive: 0.651%
25 | Cc1cccc(CNC(=O)c2ccc3c(c2)c(C)c(C)n3Cc2ccccc2)c1 | inactive: -21.7%
26 | COc1ccccc1NC(=O)Cn1c(=O)c(CNc2ccccc2)cc2cc(OC)c(OC)cc21 | inactive: -46.8%

Row | Structure (SMILES) | activation
27 | O=C(c1cnn(-c2ccc(F)cc2)c1-n1cccc1)N1CCN(c2ccc(Cl)cc2)CC1 | inactive: 9.06%
28 | O=C1CCc2cc(S(=O)(=O)NCc3ccccc3Cl)cc3c2N1CC3 | inactive: 15.9%
29 | CCN(CC)S(=O)(=O)c1ccc(C(=O)Nc2nc3ccc(Cl)cc3s2)cc1 | inactive: -2.97%
30 | O=S(=O)(c1ccccc1)c1nnn2c1nc(NCc1ccc(Cl)cc1)c1sccc12 | inactive: 0.621%
31 | COc1cc(OC)cc(-c2nc3nc(C)c(CCC(=O)Nc4ccc(C)cc4C)c(C)n3n2)c1 | inactive: -0.0662%
32 | O=C(CCn1ccc2cc(S(=O)(=O)N3CCCC3)ccc21)NCc1ccccc1F | inactive: -7.74%
33 | CCOC(=O)N1CCN(Cc2nc3cc(NC(=O)c4cccc(C)c4)ccc3n2C(C)C)CC1 | inactive: 4.32%
34 | COc1cccc(NC(=O)Cn2cc(S(=O)(=O)Cc3ccccc3F)c3ccccc32)c1 | inactive: 22.5%
35 | Cc1ccc(S(=O)(=O)c2nnn3c2nc(NCc2cccs2)c2sccc23)cc1 | inactive: -7.41%
36 | CCn1nc(C)c2c(-c3ccccc3)cc(=O)n(C(C)C(=O)NCc3ccccc3OC)c21 (configuration not stated) | inactive: -6.35%
37 | COc1ccc(C(=O)Nc2ccc3c(c2)CCCN3S(=O)(=O)c2ccc(C)cc2)c(OC)c1 | inactive: -27.2%
38 | CCc1ccc(S(=O)(=O)c2cn(C)c3cc(N4CCCC4)c(F)cc3c2=O)cc1 | inactive: 2.93%
39 | COC(=O)c1nnn(-c2ccc(Br)cc2)c1C(=O)OC | inactive: -0.836%
40 | O=C(NCc1ccco1)c1ccc2c(c1)N(Cc1ccc(Cl)cc1)C(=O)c1ccccc1S2(=O)=O | inactive: -17.7%
41 | COc1cccc(NC(=O)C2CCCN(S(=O)(=O)c3cccc4nonc34)C2)c1 (configuration not stated) | inactive: 48.6%
42 | Cc1cn2c(=O)c(S(=O)(=O)Nc3ccc(F)cc3F)c(C)nc2s1 | inactive: 3.14%
43 | CCOC(=O)CC(NC(=O)CCc1c(C)nc2ncnn2c1C)c1ccc(C)cc1 (configuration not stated) | inactive: -3.28%
44 | CCOc1ccc(C(=O)NCCc2csc(-c3cccc(F)c3)n2)cc1OCC | inactive: 3.05%
45 | CN(Cc1ccccc1)c1ccc(-c2nc(-c3ccncc3)no2)cc1[N+](=O)[O-] | inactive: 13.3%
46 | Cc1cc(C)cc(C(=O)NCC(c2ccc(N(C)C)cc2)N2CCCC2)c1 (configuration not stated) | inactive: -20.4%
47 | Oc1ccccc1Nc1nc2ccccc2n2nnnc12 | inactive: -18.1%
48 | O=C(NCc1ccc(Cl)cc1)c1ccc(Cn2c(=O)c3cccn3c3cccnc32)cc1 | inactive: -7.23%
49 | O=C1CCc2cc(S(=O)(=O)NC(C(=O)Nc3cccc(F)c3)c3ccccc3)ccc2N1 (configuration not stated) | inactive: 7.27%
50 | COc1ccc(-c2c(C)c3ccc(O)c(CN4CCCC(C)C4)c3oc2=O)cc1OC (configuration not stated) | inactive: -23.1%
51 | COc1ccc(S(=O)(=O)N2CCN(Cc3nc4ccc(C)cc4o3)CC2)cc1 | inactive: -8.55%
52 | O=C(Cn1c(=O)n(Cc2nc(-c3ccccc3)no2)c(=O)c2ccccc21)Nc1cccc(Cl)c1 | inactive: 8.96%
